Data taken from the supplement of paper PMC12217912.
The list shows a part of the results. Sequences were assembled here from the parent chain. Inactive controls read about 0.05.

B1: TEV protease; numbered along this chain (parent)
chain: MGESLFKGPRDYNPISSSICHLTNESDGHTTSLYGIGFGPFIITNKHLFRRNNGTLVVQSLHGVFKVKDTTTLQQHLVDGRDMIIIRMPKDFPPFPQKLKFREPQREERICLVTTNFQTKSMSSMVSDTSCTFPSGDGIFWKHWIQTKDGQCGSPLVSTRDGFIVGIHSASNFTNTNNYFTSVPKNFMELLTNQEAQQWVSGWRLNADSVLWGGHKVFMVKPEEPFQPVKEATQL

Variants of: B1
Assay: raw area under fraction-flipped curve 0-4 h after induction (AUC4h, not background-subtracted), DNA-recorder readout of cleavage of the substrate (dimensionless); higher = more cleavage of the substrate by the protease variant
Details: temperature: 34 °C; time window: 0-4 h after rhamnose induction
Protocol: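 In vivo DNA recorder in E. coli TOP10(DE3) ΔrhaA at 34 °C. Each TEVp single-site mutant (parent TEVp 0) is paired with a single-site variant of the 7-mer TEVs (canonical ENLYFQ|S). The substrate sits between flexible linkers in a Bxb1-sfGFP-TEVs-SsrA fusion, so cleavage stabilises Bxb1 and speeds flipping of a recombination array, read by NGS. The value is the raw area under the fraction-flipped curve over 0-4 h after rhamnose induction (AUC4h), with ≥20 reads per time point. It is not background-subtracted; inactive controls average about 0.047.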
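Also: Bxb1 expression induced with 0.2% (w/v) L-rhamnose at OD600 near 0.5, cultures sampled hourly, flipped fraction per protease–substrate barcode pair counted by paired-end Illumina sequencing.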

Row | Variant | area with substrate ENAYFQS | area with substrate ENCYFQS | area with substrate ENEYFQS | area with substrate ENHYFQS | area with substrate ENIYFQS | area with substrate ENMYFQS | area with substrate ENNYFQS | area with substrate ENQYFQS | area with substrate ENRYFQS | area with substrate ENVYFQS | area with substrate ENYYFQS | area with substrate ENDYFQS | area with substrate ENFYFQS | area with substrate ENGYFQS | area with substrate ENKYFQS | area with substrate ENPYFQS | area with substrate ENSYFQS | area with substrate ENTYFQS | area with substrate ENWYFQS
1 | MGESLFKGPRDYNPISSSICHLTNESDGHTTSLYGIGFGPFIITNKHLFRRNNGTLVVQSLHGVFKVKDTTTLQQHCVDGRDMIIIRMPKDFPPFPQKLKFREPQREERICLVTTNFQTKSMSSMVSDTSCTFPSGDGIFWKHWIQTKDGQCGSPLVSTRDGFIVGIHSASNFTNTNNYFTSVPKNFMELLTNQEAQQWVSGWRLNADSVLWGGHKVFMVKPEEPFQPVKEATQL [L77C] | 0.0844 | 0.0555 | 0.0429 | 0.0608 | 0.0727 | 0.0813 | 0.0449 | 0.0566 | 0.0598 | 0.0687 | 0.0491 | – | – | – | – | – | – | – | –
2 | MGESLFKGPRDYNPISSSICHLTNESDGHTTSLYGIGFGPFIITNKHLFRRNNGTLVVQSLHGVFKVKDTTTLQQHQVDGRDMIIIRMPKDFPPFPQKLKFREPQREERICLVTTNFQTKSMSSMVSDTSCTFPSGDGIFWKHWIQTKDGQCGSPLVSTRDGFIVGIHSASNFTNTNNYFTSVPKNFMELLTNQEAQQWVSGWRLNADSVLWGGHKVFMVKPEEPFQPVKEATQL [L77Q] | 0.0684 | 0.0612 | 0.0643 | 0.0695 | 0.0456 | – | 0.059 | 0.061 | 0.0629 | 0.0524 | – | 0.061 | 0.0793 | 0.0208 | 0.0751 | 0.0458 | 0.0515 | 0.0604 | –
3 | MGESLFKGPRDYNPISSSICHLTNESDGHTTSLYGIGFGPFIITNKHLFRRNNGTLVVQSLHGVFKVKDTTTLMQHLVDGRDMIIIRMPKDFPPFPQKLKFREPQREERICLVTTNFQTKSMSSMVSDTSCTFPSGDGIFWKHWIQTKDGQCGSPLVSTRDGFIVGIHSASNFTNTNNYFTSVPKNFMELLTNQEAQQWVSGWRLNADSVLWGGHKVFMVKPEEPFQPVKEATQL [Q74M] | 0.0566 | 0.0533 | 0.0593 | – | – | – | 0.0633 | 0.0558 | – | 0.131 | 0.0643 | 0.0577 | – | 0.0623 | 0.0631 | – | 0.0623 | 0.0715 | 0.0448
4 | MGESLFKGPRDYNPISSSICHLTNESDGHTTSLYGIGFGPFIITNKHLFRRNNGTLVVQSLHGVFKVKDTTTLKQHLVDGRDMIIIRMPKDFPPFPQKLKFREPQREERICLVTTNFQTKSMSSMVSDTSCTFPSGDGIFWKHWIQTKDGQCGSPLVSTRDGFIVGIHSASNFTNTNNYFTSVPKNFMELLTNQEAQQWVSGWRLNADSVLWGGHKVFMVKPEEPFQPVKEATQL [Q74K] | 0.0393 | – | 0.0498 | – | 0.129 | 0.0763 | 0.0631 | 0.0533 | 0.0587 | 0.0724 | 0.0583 | 0.0665 | 0.0422 | – | – | 0.0448 | 0.0736 | – | 0.0773
5 | MGESLFKGPRDYNPISSSICHLTNESDGHTTSLYGIGFGPFIITNKHLFRRNNGTLVVQSLHGVFKVKDTTTLQQKLVDGRDMIIIRMPKDFPPFPQKLKFREPQREERICLVTTNFQTKSMSSMVSDTSCTFPSGDGIFWKHWIQTKDGQCGSPLVSTRDGFIVGIHSASNFTNTNNYFTSVPKNFMELLTNQEAQQWVSGWRLNADSVLWGGHKVFMVKPEEPFQPVKEATQL [H76K] | 0.0766 | 0.0687 | 0.0638 | 0.0572 | – | – | 0.0725 | 0.0621 | 0.0658 | 0.0578 | 0.064 | 0.0618 | 0.0648 | 0.0454 | 0.0697 | 0.0703 | 0.0584 | – | –
6 | MGESLFKGPRDYNPISSSICHLTNESDGHTTSLYGIGFGPFIITNKHLFRRNNGTLVVQSLHGVFKVKDTTTLQQVLVDGRDMIIIRMPKDFPPFPQKLKFREPQREERICLVTTNFQTKSMSSMVSDTSCTFPSGDGIFWKHWIQTKDGQCGSPLVSTRDGFIVGIHSASNFTNTNNYFTSVPKNFMELLTNQEAQQWVSGWRLNADSVLWGGHKVFMVKPEEPFQPVKEATQL [H76V] | 0.0645 | 0.0536 | 0.0393 | 0.0465 | 0.108 | – | – | – | – | 0.0528 | – | – | 0.073 | 0.0485 | – | – | 0.0586 | 0.0516 | –
7 | MGESLFKGPRDYNPISSSICHLTNESDGHTTSLYGIGFGPFIITNKHLFRRNNGTLVVQSLHGVFKVKDTTTLQIHLVDGRDMIIIRMPKDFPPFPQKLKFREPQREERICLVTTNFQTKSMSSMVSDTSCTFPSGDGIFWKHWIQTKDGQCGSPLVSTRDGFIVGIHSASNFTNTNNYFTSVPKNFMELLTNQEAQQWVSGWRLNADSVLWGGHKVFMVKPEEPFQPVKEATQL [Q75I] | 0.0602 | 0.0694 | 0.0588 | 0.0648 | – | – | 0.0666 | 0.0505 | – | 0.0729 | – | 0.0602 | 0.0771 | – | – | – | 0.0629 | – | 0.051
8 | MGESLFKGPRDYNPISSSICHLTNESDGHTTSLYGIGFGPFIITNKHLFRRNNGTLVVQSLHGVFKVKDTTTLQQHLVPGRDMIIIRMPKDFPPFPQKLKFREPQREERICLVTTNFQTKSMSSMVSDTSCTFPSGDGIFWKHWIQTKDGQCGSPLVSTRDGFIVGIHSASNFTNTNNYFTSVPKNFMELLTNQEAQQWVSGWRLNADSVLWGGHKVFMVKPEEPFQPVKEATQL [D79P] | 0.0673 | – | 0.0619 | – | – | – | – | 0.0564 | – | – | – | 0.0684 | – | – | 0.063 | – | 0.101 | 0.0637 | –
9 | MGESLFKGPRDYNPISSSICHLTNESDGHTTSLYGIGFGPFIITNKHLFRRNNGTLVVQSLHGVFKVKDTTTLQQHLRDGRDMIIIRMPKDFPPFPQKLKFREPQREERICLVTTNFQTKSMSSMVSDTSCTFPSGDGIFWKHWIQTKDGQCGSPLVSTRDGFIVGIHSASNFTNTNNYFTSVPKNFMELLTNQEAQQWVSGWRLNADSVLWGGHKVFMVKPEEPFQPVKEATQL [V78R] | 0.0678 | – | 0.0617 | 0.0494 | – | – | 0.0644 | – | 0.04 | 0.0418 | – | 0.0553 | 0.0557 | – | – | 0.0475 | – | 0.0538 | 0.0018
10 | MGESLFKGPRDYNPISSSICHLTNESDGHTTSLYGIGFGPFIITNKHLFRRNNGTLVVQSLHGVFKVKDTTTLQQHLLDGRDMIIIRMPKDFPPFPQKLKFREPQREERICLVTTNFQTKSMSSMVSDTSCTFPSGDGIFWKHWIQTKDGQCGSPLVSTRDGFIVGIHSASNFTNTNNYFTSVPKNFMELLTNQEAQQWVSGWRLNADSVLWGGHKVFMVKPEEPFQPVKEATQL [V78L] | 0.0443 | 0.0688 | 0.0631 | – | – | – | 0.057 | – | – | – | – | 0.0596 | 0.0611 | – | – | – | – | 0.0705 | 0.0472
